Laboratory results: PubChem BioAssay AID1745845 (National Center for Advancing Translational Sciences (NCATS), 2022)
Screen size: about 360,000 compounds; about 2,600 (0.72%) were called active. Inconclusive means that the source gave no clear call. Such entries were picked first, then a sample of the others. Calls come from the whole dose curve; as a rule, active = well fitted inhibition curve with a large enough effect; inconclusive = small, poorly fitted or top-dose-only effect; inactive = no such curve, though single readings can be large or run the other way. Potencies beside an inconclusive call are fits to weak or partial responses and may not hold up.

Experiment: Primary qHTS for Inhibitors of ATXN expression; note: nearly all actives have a fitted effect of over 55% in size
Conditions: HEK-293 ATXN2-luciferase reporter, luminescence, 24 h; activity change, negative = inhibition: at 57 µM (top of the series)
Procedure, shortened: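 ATXN2-luciferase reporter cells (luciferase flanked by upstream and downstream ATXN2 gene portions) were treated 24 h at 37 °C with compounds at up to 57 uM. SteadyGlo luminescence gave expression; GF-AFC fluorescence gave viability.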
% is set by controls: 0 for no effect and ±100 for the full control effect; potency is the fitted concentration of half-maximal effect; tags give direction and shape of the fitted curve.

Row | Structure (SMILES) | Potency | activity change, negative = inhibition
1 | CCC(C)Sc1nc2c(c(=O)[nH]1)C(c1cccs1)C1=C(CCCC1=O)N2 (stereo not given) | inconclusive: 25.1 µM [inhibitor, single point] | 
2 | Cc1cc(C)c2nc(NCCCNC(=S)NCCCN(C)C)c(C#N)cc2c1 | inconclusive: 33.6 µM [inhibitor, partial curve, poor fit] | 
3 | CC(C)c1cccc(C(C)C)c1OC(=O)[C@H]1OC(c2ccc(Br)cc2)=C[C@@H]1c1ccc(Br)cc1 | inconclusive: 39.8 µM [inhibitor, single point] | 
4 | CCCCC[C@H](C)N1C[C@@H](COCc2ccccc2)Oc2cc(N3CC[C@@H](N(C)C)C3)ccc2S1(=O)=O | active: 31.6 µM | 
5 | O=Cc1cn(CCC(=O)O)nc1-c1cccc2ccccc12 |  | inactive: 16.5%
6 | Cc1ccc(F)c([C@H]2[C@H]3C=CC[C@@H](C)[C@@H]3C(=O)N2Cc2ccccc2)c1 | inconclusive: 39.8 µM [inhibitor, single point] | 
7 | C=CCN1CC(c2nc3ccccc3n2CCOc2ccccc2)CC1=O (stereo not given) |  | inactive: -4.6%
8 | CCc1ccc(S(=O)(=O)/N=C2/C=C(Sc3ncn[nH]3)C(=O)c3ccccc32)cc1 | active: 15.8 µM | 
9 | Cc1cc(C)cc(NC(=O)C2CCN(C(=O)c3cnn(-c4ccccc4)c3-n3cccc3)CC2)c1 | inconclusive: 28.2 µM [inhibitor, single point] | 
10 | COc1ccc(-c2nn(-c3ccc(F)cc3)c3c2cnc2cc4c(cc23)OCO4)cc1 |  | inactive: 12.2%
11 | Cc1cc(C(C)(C)C)oc1C(=O)Nc1ccc(CC(=O)O)cc1 | inconclusive: 14.1 µM [inhibitor, partial curve, poor fit] | 
12 | Nc1ccc(C(=O)n2c3ccccc3c3ccccc32)cc1 | inconclusive: 17.8 µM [inhibitor, partial curve] | 
13 | O=C(O)CC1CCC(=C(Cl)Cl)C1 (stereo not given) | inconclusive: 35.5 µM [inhibitor, single point] | 
14 | Cc1nc(S(=O)(=O)N(C)c2ccccc2)c(C#N)c(C)c1Cl | inconclusive: 15.8 µM [inhibitor, partial curve] | 
15 | Fc1ccc(CNc2ncnc3ccc(F)cc23)cc1 | inconclusive: 7.69 µM [inhibitor, partial curve, poor fit] | 
16 | CC(C)(C)c1ccc(OCc2ccc(C(=O)Nc3cccnc3)o2)cc1 | inconclusive: 39.8 µM [inhibitor, single point] | 
17 | O=c1cc(C(F)(F)F)[nH]c2ccc(OC(F)(F)F)cc12 | inconclusive: 12.6 µM [inhibitor, partial curve, poor fit] | 
18 | O=C(NCc1cccc(Cl)c1)C1Cc2c(-c3ccccc3Oc3ccccc3)ccnc2O1 (stereo not given) | inconclusive: 25.1 µM [inhibitor, single point] | 
19 | COc1ccc(CN2C(=O)C(CC(=O)NCCCCc3ccccc3)CC(C(=O)N(C(C)C)C(C)C)=C2C)cc1 (stereo not given) | inconclusive: 20 µM [inhibitor, partial curve, poor fit] | 
20 | CN1CCN(S(=O)(=O)c2ccc(NC(=O)Nc3cccc(Cl)c3)cc2)CC1 |  | inactive: 6.85%
21 | CC(=O)N1CCN(c2cc(N3CCc4ccccc4C3)c(F)cc2[N+](=O)[O-])CC1 | inconclusive: 39.8 µM [inhibitor, single point] | 
22 | O=C(Cn1nnc(-c2ccccc2)n1)NNC(=O)c1ccc(Br)cc1 | inconclusive: 22.4 µM [inhibitor, partial curve, poor fit] | 

Row | Structure (SMILES) | Potency | activity change, negative = inhibition
23 | CC(C)CCN1CCN(CCCn2cccn2)CC1CCO (stereo not given) |  | inactive: -10.1%
24 | COc1ccc(-c2cc(C3CCN(c4ccc(C(C)=O)cc4[N+](=O)[O-])CC3)[nH]n2)cc1 | inconclusive: 31.6 µM [inhibitor, partial curve, poor fit] | 
25 | COc1cc(OC)cc(C(=O)NCC(=O)N2CCN(c3ccc(O)cc3)CC2)c1 | inconclusive: 15.8 µM [inhibitor, partial curve, poor fit] | 
26 | CCc1cc(=O)oc2cc3occ(-c4ccc(OC)c(F)c4)c3cc12 | inconclusive: 10 µM [inhibitor, partial curve, poor fit] | 
27 | Cc1ccc(C)c(S(=O)(=O)Nc2ccc3c(c2)CCCN3C(=O)c2cccs2)c1 | inconclusive: 31.6 µM [inhibitor, single point] | 
28 | COc1ccc(NC(=O)CSc2nnc(-c3ccccc3)n2Cc2ccco2)cc1OC | inconclusive: 6.31 µM [inhibitor, partial curve, poor fit] | 
29 | OC(CNc1ccnc2cc(Cl)ccc12)CNC1CCCCC1 (stereo not given) | active: 31.6 µM | 
30 | CCCCCCCC/C=C\CCCCCCCC(=O)O |  | inactive: 6.95%
31 | CCN(CC)CCNC(=O)c1ccc(NC(=O)c2ccc(S(=O)(=O)N3CCCCCC3)cc2)cc1 |  | inactive: -7.62%
32 | Cc1cc(C)cc(N(CC(=O)NCc2ccco2)C(=O)CCC(=O)Nc2nccs2)c1 |  | inconclusive: -47.4% [inhibitor]
33 | Cc1cc(NC(=O)/C(C#N)=C\c2ccc(-c3ccc(SC(F)F)cc3)o2)n(-c2ccccc2)n1 | inconclusive: 15.8 µM [inhibitor, partial curve, poor fit] | 
34 | Cc1ccc(NC(=O)C2CCN(c3nc4ccccc4nc3C(F)(F)F)CC2)cc1C |  | inactive: 2.92%
35 | Cc1nc(-c2ccc(S(=O)(=O)N(C)Cc3ccccc3)cc2)co1 | inconclusive: 25.1 µM [inhibitor, partial curve, poor fit] | 
36 | COc1ccc(-c2c/c(=N\c3nc(-c4ccccc4)c(C)s3)c3ccccc3o2)cc1O | inconclusive: 10 µM [inhibitor, partial curve, poor fit] | 
37 | O=C(c1ccco1)N1CCN(CCOCCOc2cccc3ccccc23)CC1 |  | inactive: -19.1%
38 | CC(C)c1ccc(NC(=O)C2Cc3ccccc3N2C(=O)c2ccccc2)cc1 (stereo not given) |  | inactive: 1.37%
39 | CC(C)(C)C1CCc2c(sc(NC(=O)CSc3ncn[nH]3)c2C#N)C1 (stereo not given) | inconclusive: 31.6 µM [inhibitor, partial curve, poor fit] | 
40 | Cc1ccc(-c2[nH]nc(N)c2N=Nc2cccc(Cl)c2C)cc1 | inconclusive: 25.1 µM [inhibitor, single point] | 
41 | CN(C)C(=O)CSc1nc(-c2ccccc2)nc2c1CCCC2 | inconclusive: 22.4 µM [inhibitor, partial curve] | 
42 | CCn1c(COc2ccc(Cl)cc2)nnc1SCc1ccc(C#N)cc1 |  | inactive: -6.29%
43 | CC1Cc2ccccc2N1C(=O)CSc1nc2c(c(=O)n(C)c(=O)n2C)n1Cc1ccc(F)cc1 (stereo not given) |  | inactive: -3.34%
44 | S=C(NCc1ccc(Cl)c(Cl)c1)Nc1ccc2c(c1)OCO2 |  | inactive: 0%

Row | Structure (SMILES) | Potency | activity change, negative = inhibition
45 | CC(C)C[C@]1(c2ccccc2)ON(c2ccccc2C(F)(F)F)C1=O | inconclusive: 31.6 µM [inhibitor, partial curve, poor fit] | 
46 | Cc1ccc2[nH]c(C(=O)NN=C3CCCCC3)c(-c3ccccc3)c2c1 | inconclusive: 16.8 µM [inhibitor, partial curve, poor fit] | 
47 | CSc1nc2ccc(Nc3nc(N4CCOCC4)nc(N4CCOCC4)n3)cc2s1 | inconclusive: 22.4 µM [inhibitor, partial curve, poor fit] | 
48 | Cc1cccc(NC(=S)N/N=C/c2ccc([N+](=O)[O-])s2)c1 | active: 20 µM | 
49 | NC(COCc1ccccc1)c1csc(Nc2ccc(C(=O)c3ccccc3)cc2)n1 (stereo not given) | inconclusive: 35.5 µM [inhibitor, single point] | 
50 | CCOc1ccc(-n2c(Cc3ccccc3)nnc2SCc2nc(-c3cccs3)no2)cc1 | inconclusive: 25.1 µM [inhibitor, single point] | 
51 | COc1ccccc1NS(=O)(=O)c1cccc(C(=O)NC2CCN(Cc3ccccc3)CC2)c1 | inconclusive: 15.8 µM [inhibitor, partial curve, poor fit] | 
52 | Cc1ccc(S(=O)(=O)N2CCOCC2)cc1NCC(=O)Nc1ccc(OC(F)(F)F)cc1 |  | inactive: -0.635%
53 | CCOc1ccccc1OCCN1CCC(Cc2ccccc2)CC1 |  | inactive: -29.7%
54 | COc1ccc(CC(=O)Nc2nnc3n2CCS3)cc1 |  | inactive: 7.53%
55 | Cc1ccc(-c2nc(CSCC(=O)N3CCN(c4ccccn4)CC3)c(C)o2)cc1 | inconclusive: 15.8 µM [inhibitor, partial curve] | 
56 | Cc1cc2nc(C3CCN(CC4COc5ccccc5O4)CC3)[nH]c2cc1C (stereo not given) | inconclusive: 28.2 µM [inhibitor, single point] | 
57 | Cc1ccc2nc(C3CCCCC3)c(Cc3ccccc3)n2c1 | inconclusive: 31.6 µM [inhibitor, single point] | 
58 | C[C@H](O)[C@@H]1CN2CCc3c([nH]c4ccc(-c5ccc6c(c5)OCO6)cc34)[C@@H]2C[C@@H]1N(C)C(=O)Nc1cc(Cl)cc(Cl)c1 | active: 20 µM | 
59 | O=S(=O)(c1cc(C(F)(F)F)ccc1Cl)N1CCN(c2ncnc3ccccc23)CC1 | inconclusive: 14.1 µM [inhibitor, partial curve, poor fit] | 
60 | COc1ccc(NC(=O)NC2(C(=O)N3CCN4CCCC4C3)CCCCC2)cc1 (stereo not given) |  | inactive: 7.74%
61 | NCCCC[C@H]1CNC(=S)N1CC1CCCCC1 |  | inactive: 1.39%
62 | Cn1c(=O)c2c(SCC(=O)N3CCCc4ccccc43)nc(C3CC3)nc2n(C)c1=O | inconclusive: 3.55 µM [inhibitor, partial curve, poor fit] | 
63 | COc1ccc(/C=C2/C(=O)OCc3cc(OC)c(OC)cc32)cc1 | inconclusive: 3.16 µM [inhibitor, partial curve, poor fit] | 
64 | Cn1cccc1-c1cc(C(=O)N/N=C/c2cc(Br)ccc2O)[nH]n1 | inconclusive: 3.55 µM [inhibitor, partial curve, poor fit] | 
65 | Cc1ccc(C)c(N2CCN(C(=O)Cn3c(C)c4cnn(-c5ccccc5)c(=O)c4c3C)CC2)c1 | inconclusive: 39.8 µM [inhibitor, single point] | 
